This passage reports viability, T/C and IC50 results from PubChem BioAssay AID2060513 (Molecular Pharmacology Branch, DTP, NCI, 2025).

By IC50 is commonly meant the concentration that inhibits the measured activity by half.

For this assay, the system named is 299254-011-R-J1-PDC complex spheroids viability. In words: Anticancer human tumor 299254-011-R-J1-PDC patient-derived melanoma cell line growth inhibition [GQUAD]. As to conditions: for viability, T/C: stronger effect = lower value. An excerpt:
DNA G-quadruplex Stabilizer Agents in Combinations in Complex Spheroids
A high-throughput screen of multi-cell type tumor spheroids was designed to identify active combinations of DNA G-quadruplex stabilizer agents and targeted small molecules. Complex spheroids include a stromal component modeled by human endothelial cells (HUVEC) and fibroblasts modeled by human mesenchymal stem cells (MSCs). The concentration ranges selected for each drug and investigational agent were based upon clinically achievable concentrations if the clinical Cmax of the agent was known.
Compounds. The drugs and investigational agents: pidnarulex (CX-5461; NSC782164), APTO-253 (NSC789042), BRACO-19 (NSC847499), peposertib (NSC802822), ceralasertib (NSC780249), elimusertib (NSC800525), camonsertib (NSC841442), AZD-1390 (NSC803789), olaparib (NSC753686), talazoparib (NSC767125), ART-558 (NSC835418), sotorasib (NSC818433), MRTX-1133 (NSC836407), SN-38 (NSC673596), topotecan (NSC609699), etoposide (NSC141540), doxorubicin (NSC123127), gemcitabine (NSC613327), 5-fluorouracil (NSC19893), paclitaxel (NSC125973), vemurafenib (NSC761431), panobinostat (NSC761190), R-306465 (JNJ-16241199; NSC773264), adavosertib (NSC754352), TP-3654 (NSC805149), carboplatin (NSC241240), KSQ-4279 (NSC840948), and staurosporine (NSC755774) were obtained from the National Cancer Institute (NCI) Developmental Therapeutics Program Chemical Repository (34). The FDA-approved anticancer drug set is available from the NCI Developmental Therapeutics Program. […] The stock solutions were prepared in dimethyl sulfoxide (DMSO, Sigma-Aldrich, St. Louis, MO, cat. D2650) at 800-fold the tested concentration and stored at -70 degrees C prior to their use. All drugs and investigational agents were tested over a range starting from a high concentration at or near the clinical Cmax and decreasing in half-log increments. If the clinical Cmax for an agent had not been determined, the highest concentration tested was 10 microM.
2.3 Cell Culture. All cells were maintained in an incubator at 37 degrees C and 5% CO2 with 95% humidity. The PDC lines were cultured according to standard operating procedures established by the NCI PDMR. All PDCs were thawed and cultured in Matrigel-coated flasks prepared with a working solution of 1X Ham's F-12 nutrient mix, without supplementation (Invitrogen, cat. 11765054), 100 U/mL penicillin-streptomycin (Invitrogen, cat. 15140122), and 2.5% Matrigel (Corning Inc., cat. 354248) for the first three passages. The 857933-349-R-J2-PDC line was cultured in 6C/Colon 1B media, which includes advanced DMEM/F-12 (Thermo Fisher Scientific, cat. 12634028), 10 mM HEPES (Thermo Fisher Scientific, cat. 15630080), 1X GlutaMAX supplement (Thermo Fisher Scientific, cat. 35050061), 0.1 mg/mL primocin (InvivoGen, cat. ant-pm-2), 10% defined fetal bovine serum, heat inactivated (HyClone Laboratories Inc., cat. SH30070.03HI), 50% L-WRN conditioned media (ATCC, cat. CRL-3276), 1.25 mM N-Acetyl-L-cysteine (Sigma-Aldrich, cat. A9165), 10 mM nicotinamide (Sigma-Aldrich, cat. N0636), 1X B-27 supplement (Thermo Fisher Scientific, cat. 17504044), 1X N-2 supplement (Thermo Fisher Scientific, cat. 17502048), 10 microM Y-27632 dihydrochloride (Tocris Bioscience, cat. 1254), and 50 ng/mL human EGF recombinant protein (Thermo Fisher Scientific, cat. PHG0311). The 485176-168-R4-J1-PDC line was cultured in Panc media, which includes all 6C/Colon 1B media components plus 100 ng/mL human FGF-10 (Thermo Fisher Scientific, cat. 100-26), 500 nM SB-431542 (Selleckchem, cat. S1067), and gastrin (Tocris, cat. 3006).
[…]

SMILES strings stand for the structures. The source holds more than one record for some entries. The list is limited to them. There may be further records. The records of an entry are repeated measurements (runs, samples, wells, individuals or studies). Signs of the kind (2×) stand for listed records that agree.
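Further: spheroids exposed to the agents for seven days before readout.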
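Wherever viability, T/C is given: percent viability relative to DMSO vehicle control wells = 100%.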

As for `CN(C)c1ccc(Nc2c3ccc(NC(=O)CCN4CCCC4)cc3nc3cc(NC(=O)CCN4CCCC4)ccc23)cc1`, the viability, T/C is, setting by setting: (compound alone 0.1 µM) 98.9, 91.1, 86.1, 104 (2×), 102, 78.3, 99.9, 109, 91.9, 101, 98.6%; (compound alone 1 µM) 99.6, 79, 94.4, 100, 114, 88.1, 91.5, 103 (2×), 92.4, 86.6, 92.6%.
For the compound `Cc1cnc(CNC(=O)c2c(=O)c3ccc(N4CCCN(C)CC4)nc3n3c2sc2ccccc23)cn1`, the viability, T/C reads like this: (compound alone 0.0316 µM) 96, 104 (2×), 121, 92, 88.2, 118, 102, 88.4, 109, 99.1, 98.4%; (compound alone 0.1 µM) 105, 99.7, 83.8, 91.7, 90.5, 89.4, 102, 101, 109, 115, 80.3, 120%; (compound alone 1 µM) 93.7, 89.1, 79.2, 97.5, 93.5, 82.6, 97, 75.9, 101, 98.2, 104, 99.7%; (compound alone 3.16 µM) 75.5, 80, 67.9, 68.7, 71, 68.3, 88.4, 58.2, 73, 86.7, 79, 69.4%; (compound alone 10 µM) 32.1, 64.9, 0.34, 0.39, 0.41, 13.5, 51.6, 16.2, 68.9, 15.2, 60.8, 27.5%. Moreover, the IC50 (compound alone, run of 02/20/2024) is given as 6.22 µM, 3.92 µM, 4.33 µM, 4.46 µM, 4.61 µM, 3.84 µM, > 10 µM, 5.64 µM, 5.38 µM.
Consider `Cc1[nH]c2ccc(F)cc2c1-c1nc2c3cccnc3c3ncccc3c2[nH]1`, for which the viability, T/C (compound alone 0.1 µM) was 101 (2×), 117, 83.5, 87, 103, 99, 104, 95, 87.9, 87.5, 93.8%; the viability, T/C (compound alone 1 µM) was 83.7, 90.3, 89, 90.5, 103 (2×), 87.2, 81.2, 88, 104, 114, 119%; the viability, T/C (compound alone 3.16 µM) is given as 73.7, 88.5, 88.3, 92.4, 78.1, 83.7, 86.2, 84.1, 106, 112, 87.3, 98.2%; the viability, T/C (compound alone 10 µM) is 65.8, 75, 73.6, 96.5, 95.6, 97.6, 99.2, 74.6, 89.5, 95.5, 76.5, 106%.
